In article PMC11791083:
Results are given in words; binding and its absence hold for the method and conditions named. In cells and extracts the contact can be indirect. Some results given as binding are weak or reduced against the parent protein; the word gives no strength. For some of these results: Tags and fused reporters may be left off the sequences shown. Values belong to the binder of their own block, whether it stands above or below them.

Protein sequences, listed by entry. Tags and fused reporters are not part of them.
UniProt Q15717: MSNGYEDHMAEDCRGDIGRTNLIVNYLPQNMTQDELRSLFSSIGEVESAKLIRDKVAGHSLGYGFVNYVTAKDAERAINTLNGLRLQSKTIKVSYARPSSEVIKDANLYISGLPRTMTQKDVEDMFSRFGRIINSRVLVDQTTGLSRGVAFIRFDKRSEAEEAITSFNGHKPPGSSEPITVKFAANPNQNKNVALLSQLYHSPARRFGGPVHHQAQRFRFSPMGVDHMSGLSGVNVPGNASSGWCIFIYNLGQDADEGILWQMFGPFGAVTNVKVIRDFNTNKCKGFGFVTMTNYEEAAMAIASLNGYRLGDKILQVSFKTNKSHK

How the values were obtained:
[1] = molecular target: T1, heterogeneous nuclear ribonucleoprotein M, C-terminally GFP-tagged (hnRNPM-GFP) (human) (UniProt P52272); experiment: co-IP; GFP-Trap magnetic agarose on lysates of THP-1 cells expressing hnRNPM-GFP or GFP, non-stimulated or pDNA-stimulated (0.1 µg/ml, 3 h); TAP lysis buffer, 4 °C overnight; IPs with or without RNase A (100 µg/ml, 1.5 h); immunoblot
T1 sequence: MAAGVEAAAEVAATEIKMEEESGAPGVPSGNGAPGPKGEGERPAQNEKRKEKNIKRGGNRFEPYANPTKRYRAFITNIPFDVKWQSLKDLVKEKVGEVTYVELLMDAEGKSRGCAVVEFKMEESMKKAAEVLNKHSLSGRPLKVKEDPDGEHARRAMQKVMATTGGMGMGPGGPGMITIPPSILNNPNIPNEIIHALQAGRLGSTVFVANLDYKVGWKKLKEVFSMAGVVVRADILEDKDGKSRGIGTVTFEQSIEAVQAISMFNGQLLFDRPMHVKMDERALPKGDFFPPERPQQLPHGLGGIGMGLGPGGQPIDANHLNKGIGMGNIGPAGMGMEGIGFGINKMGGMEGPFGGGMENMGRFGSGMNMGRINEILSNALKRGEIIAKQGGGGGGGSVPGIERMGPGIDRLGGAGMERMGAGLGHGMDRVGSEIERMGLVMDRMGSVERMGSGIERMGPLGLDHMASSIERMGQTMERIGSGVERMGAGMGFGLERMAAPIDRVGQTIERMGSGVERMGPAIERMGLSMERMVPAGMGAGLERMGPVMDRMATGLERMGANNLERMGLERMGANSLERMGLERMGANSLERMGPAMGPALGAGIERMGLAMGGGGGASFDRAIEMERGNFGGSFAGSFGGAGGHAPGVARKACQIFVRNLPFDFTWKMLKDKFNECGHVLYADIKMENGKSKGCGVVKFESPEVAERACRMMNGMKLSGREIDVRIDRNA

[2] = molecular target: ELAV-like protein 1, FLAG-tagged (ELAVL1-FLAG) (human) (UniProt Q15717); experiment: co-IP; anti-FLAG M2 magnetic beads on lysates of HEK293FT cells transfected with ELAVL1-FLAG or WT cells; 4 °C overnight; IPs with or without RNase A (100 µg/ml, 1.5 h); elution with 3x FLAG peptide; immunoblot
[3] = molecular target: T2, heterogeneous nuclear ribonucleoprotein M, C-terminally GFP-tagged (hnRNPM-GFP) (human), P52272; experiment: co-IP; GFP-Trap magnetic agarose on lysates of THP-1 cells expressing hnRNPM-GFP or GFP, non-stimulated or pDNA-stimulated (0.1 µg/ml, 3 h); TAP lysis buffer, 4 °C overnight; IPs with or without RNase A (100 µg/ml, 1.5 h); immunoblot; settings: remark: other sources report otherwise
T2 chain: T1 sequence

binding [1]: binds
B1: IκB kinase β (IKKβ), endogenous in THP-1 (protein, UniProt O14920 1-756)
chain: MSWSPSLTTQTCGAWEMKERLGTGGFGNVIRWHNQETGEQIAIKQCRQELSPRNRERWCLEIQIMRRLTHPNVVAARDVPEGMQNLAPNDLPLLAMEYCQGGDLRKYLNQFENCCGLREGAILTLLSDIASALRYLHENRIIHRDLKPENIVLQQGEQRLIHKIIDLGYAKELDQGSLCTSFVGTLQYLAPELLEQQKYTVTVDYWSFGTLAFECITGFRPFLPNWQPVQWHSKVRQKSEVDIVVSEDLNGTVKFSSSLPYPNNLNSVLAERLEKWLQLMLMWHPRQRGTDPTYGPNGCFKALDDILNLKLVHILNMVTGTIHTYPVTEDESLQSLKARIQQDTGIPEEDQELLQEAGLALIPDKPATQCISDGKLNEGHTLDMDLVFLFDNSKITYETQISPRPQPESVSCILQEPKRNLAFFQLRKVWGQVWHSIQTLKEDCNRLQQGQRAAMMNLLRNNSCLSKMKNSMASMSQQLKAKLDFFKTSIQIDLEKYSEQTEFGITSDKLLLAWREMEQAVELCGRENEVKLLVERMMALQTDIVDLQRSPMGRKQGGTLDDLEEQARELYRRLREKPRDQRTEGDSQEMVRLLLQAIQSFEKKVRVIYTQLSKTVVCKQKALELLPKVEEVVSLMNEDEKTVVRLQEKRQKELWNLLKIACSKVRGPVSGSPDSMNASRLSQPGQLMSQPSTASNSLPEPAKKSEELVAEAHNLCTLLENAIQDTVREQDQSFTALDWSWLQTEEEEHSCLEQAS

binding [1]: no binding
B2: IRF3 phosphorylated at Ser396 (pIRF3-Ser396), endogenous in THP-1 (protein, UniProt Q14653 1-427)
chain: MGTPKPRILPWLVSQLDLGQLEGVAWVNKSRTRFRIPWKHGLRQDAQQEDFGIFQAWAEATGAYVPGRDKPDLPTWKRNFRSALNRKEGLRLAEDRSKDPHDPHKIYEFVNSGVGDFSQPDTSPDTNGGGSTSDTQEDILDELLGNMVLAPLPDPGPPSLAVAPEPCPQPLRSPSLDNPTPFPNLGPSENPLKRLLVPGEEWEFEVTAFYRGRQVFQQTISCPEGLRLVGSEVGDRTLPGWPVTLPDPGMSLTDRGVMSYVRHVLSCLGGGLALWRAGQWLWAQRLGHCHTYWAVSEELLPNSGHGPDGEVPKDKEGGVFDLGPFIVDLITFTEGSGRSPRYALWFCVGESWPQDQPWTKRLVMVKVVPTCLRALVEMARVGGASSLENTVDLHISNSHPLSLTSDQYKAYLQDLVEGMDFQGPGES
modifications: phosphoserine at 396

binding [1]: no binding
B3: interferon regulatory factor 3 (IRF3), endogenous in THP-1 (protein, UniProt Q14653 1-427)
chain: B2 chain

binding [2]: binds
B4: heterogeneous nuclear ribonucleoprotein M (hnRNPM), endogenous in HEK293FT (protein, UniProt P52272 1-730)
chain: T1 sequence

binding [1]: binds
B5: IκB kinase ε (IKKε), endogenous in THP-1 (protein, UniProt Q14164 1-716)
chain: MQSTANYLWHTDDLLGQGATASVYKARNKKSGELVAVKVFNTTSYLRPREVQVREFEVLRKLNHQNIVKLFAVEETGGSRQKVLVMEYCSSGSLLSVLESPENAFGLPEDEFLVVLRCVVAGMNHLRENGIVHRDIKPGNIMRLVGEEGQSIYKLTDFGAARELDDDEKFVSVYGTEEYLHPDMYERAVLRKPQQKAFGVTVDLWSIGVTLYHAATGSLPFIPFGGPRRNKEIMYRITTEKPAGAIAGAQRRENGPLEWSYTLPITCQLSLGLQSQLVPILANILEVEQAKCWGFDQFFAETSDILQRVVVHVFSLSQAVLHHIYIHAHNTIAIFQEAVHKQTSVAPRHQEYLFEGHLCVLEPSVSAQHIAHTTASSPLTLFSTAIPKGLAFRDPALDVPKFVPKVDLQADYNTAKGVLGAGYQALRLARALLDGQELMFRGLHWVMEVLQATCRRTLEVARTSLLYLSSSLGTERFSSVAGTPEIQELKAAAELRSRLRTLAEVLSRCSQNITETQESLSSLNRELVKSRDQVHEDRSIQQIQCCLDKMNFIYKQFKKSRMRPGLGYNEEQIHKLDKVNFSHLAKRLLQVFQEECVQKYQASLVTHGKRMRVVHETRNHLRLVGCSVAACNTEAQGVQESLSKLLEELSHQLLQDRAKGAQASPPPIAPYPSPTRKDLLLHMQELCEGMKLLASDLLDNNRIIERLNRVPAPPDV

binding [3]: binds
B6: TANK-binding kinase 1 (TBK1), endogenous in THP-1, Q9UHD2 1-729 (protein)
chain: MQSTSNHLWLLSDILGQGATANVFRGRHKKTGDLFAIKVFNNISFLRPVDVQMREFEVLKKLNHKNIVKLFAIEEETTTRHKVLIMEFCPCGSLYTVLEEPSNAYGLPESEFLIVLRDVVGGMNHLRENGIVHRDIKPGNIMRVIGEDGQSVYKLTDFGAARELEDDEQFVSLYGTEEYLHPDMYERAVLRKDHQKKYGATVDLWSIGVTFYHAATGSLPFRPFEGPRRNKEVMYKIITGKPSGAISGVQKAENGPIDWSGDMPVSCSLSRGLQVLLTPVLANILEADQEKCWGFDQFFAETSDILHRMVIHVFSLQQMTAHKIYIHSYNTATIFHELVYKQTKIISSNQELIYEGRRLVLEPGRLAQHFPKTTEENPIFVVSREPLNTIGLIYEKISLPKVHPRYDLDGDASMAKAITGVVCYACRIASTLLLYQELMRKGIRWLIELIKDDYNETVHKKTEVVITLDFCIRNIEKTVKVYEKLMKINLEAAELGEISDIHTKLLRLSSSQGTIETSLQDIDSRLSPGGSLADAWAHQEGTHPKDRNVEKLQVLLNCMTEIYYQFKKDKAERRLAYNEEQIHKFDKQKLYYHATKAMTHFTDECVKKYEAFLNKSEEWIRKMLHLRKQLLSLTNQCFDIEEEVSKYQEYTNELQETLPQKMFTASSGIKHTMTPIYPSSNTLVEMTLGMKKLKEEMEGVVKELAENNHILERFGSLTMDGGLRNVDCL

binding [2]: binds
B7: TANK-binding kinase 1 (TBK1), endogenous in HEK293FT (protein, UniProt Q9UHD2 1-729)
chain: B6 chain
